# Results reported in the RNAGym collection of RNA variant scans (doi:10.1093/nar/gkz1192).
# The source gives no read counts; variants with many changes may rest on few reads.
# B1: CPEB3 Ribozyme (parent)
# chain: UAACAGGGGGCCACAGCAGAAGCGUUCACGUCGCAGCCCCUGUCAGAUUCUGGUGAAUCUGCGAAUUCUGCUGUAUAUCUC
# Variants of: B1
# Assay: self-cleavage, relative activity (ratio to wild type); higher = more cleavage; in vitro, sequencing
# Outline: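 Libraries of CPEB3 self-cleaving ribozyme mutants came from rounds of error-prone PCR and carried barcodes, which DNA sequencing matched to variants. In vitro transcription used T7 RNA polymerase at 37°C for 5 hours, with a further 15 min in DNase I before EDTA stopped the reaction; the ribozymes cleaved during both steps. The RNA was reverse transcribed with template switching and sequenced on Illumina. Relative activity is the cleaved/total read fraction of a variant divided by that of the unmutated ribozyme, averaged over three batches with at least 5 reads.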
row,Variant,self-cleavage
1,U26A A47G U49A G53U G61C G70U A75U,0.06
2,U26A A47G U51C U72A,0.41
3,U26A A47G U51C U74A,1.2
4,U26A A47G U51C U76C,1.02
5,U26A A47G U51G A57G U58C,0.97
6,U26A A47G U60A A65U,0.18
7,U26A A47G U67C,0.24
8,U26A A47G U72C,0.99
9,U26A A56G A64G,0.65
10,U26A A56G A77G U80C,0.5
11,U26A A56G C68U,0.23
12,U26A A56G U60C,0.45
13,U26A A56G U69C,0.28
14,U26A A56G U72A,0.26
15,U26A A56G U74A,0.86
16,U26A A56U A57G U66A,0.13
17,U26A A56U U72C,0.43
18,U26A A56U U80G,0.46
19,U26A A57C A64C U69C,0.13
20,U26A A57G C62U U76C U78C,0.14
21,U26A A57G C68U,0.67

row,Variant,self-cleavage
1,U26A A57G U66C,0.38
2,U26A A57G U69C,0.3
3,U26A A57G U80C,0.93
4,U26A A57U U60A U69C,0.2
5,U26A A64G U66C,0.17
6,U26A A64G U67C,0.19
7,U26A A64G U69C,0.26
8,U26A A64G U72C,0.61
9,U26A A64U U80C,0.36
10,U26A A65G U66C A75U A77G,0.06
11,U26A C27A A75G U80C,0.15
12,U26A C27G U41A,0.21
13,U26A C27G U49A U51A A64G U67C,0.06
14,U26A C27U A45G A47U U60G U67C U80A,0.12
15,U26A C27U U41A A47G,0.1
16,U26A C27U U51G,0.3
17,U26A C27U U58A U76A,0.17
18,U26A C29A A57G,0.13
19,U26A C29A U69A,0.21
20,U26A C29G U51C A56G,0.2
21,U26A C29U C34U U43C U48C U78C,0.05

row,Variant,self-cleavage
1,U26A C32A C39G U41C U54A U66C,0.08
2,U26A C32U G36A U67A,0.07
3,U26A C32U U74A,0.25
4,U26A C34A U48C U67A,0.17
5,U26A C34G U58C,0.09
6,U26A C34U U51C U74A,0.32
7,U26A C38G U41C A45U,0.16
8,U26A C38U A56G A65G,0.07
9,U26A C39U U43A,0.24
10,U26A C39U U78C,0.33
11,U26A C40A A45G,0.16
12,U26A C40A G55U U69C U78C,0.07
13,U26A C40U A45G,0.45
14,U26A C40U U72G,0.37
15,U26A C50U G53U A56U,0.21
16,U26A C50U U51A A56G U66A,0.15
17,U26A C59A G73A,0.52
18,U26A G30A A35G U41A G42U U78A,0.18
19,U26A G30A U31C A56G G61C G63U,0.06
20,U26A G30U C34U A45C U58A A75U,0.09
21,U26A G30U G52A,0.07

row,Variant,self-cleavage
1,U26A G33A A45C,0.09
2,U26A G33A U51A,0.32
3,U26A G33U U41A U43A,0.29
4,U26A G36A A45G U67A U78C,0.05
5,U26A G36A U41C A45G U67A,0.22
6,U26A G36A U51C A75U,0.14
7,U26A G36U C40U,0.15
8,U26A G42A A45G A56G,0.09
9,U26A G42A A57G,0.11
10,U26A G42A U58C A77U,0.05
11,U26A G46A C50G A57G,0.12
12,U26A G46U U60C C71U,0.09
13,U26A G52A C59U,0.99
14,U26A G52C A56G,1.02
15,U26A G61A C81U,0.83
16,U26A G61A U80C,0.89
17,U26A G63A A77G,0.69
18,U26A U31A A35G A47C U69A,0.1
19,U26A U31A C39U U43C G55C A57G,0.12
20,U26A U31A G52C A57U,0.16
